Assay results reported in article PMC9911399.
The list shows a part of the results.

Target: T1, RBFOX1 RRM (Homo sapiens) (UniProt Q9NWB1)
T1 sequence: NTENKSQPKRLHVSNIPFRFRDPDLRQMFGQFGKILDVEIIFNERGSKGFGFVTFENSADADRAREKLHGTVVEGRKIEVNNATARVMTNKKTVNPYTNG
Assay: EMSA
Conditions: HiTS-Eq, 1 nM pool, 10 min; buffer printed only for the single-RNA assays: 10 mM Tris pH 7.5, 150 mM NaCl, 3.4 mM EDTA, 0.001% NP-40, 30 C

Row | Sequence | binding signal (KA relative to UGCAUGU)
1 | GGGAGACCGGAAUUCAGAUUGUCCCCCUCUCUUAAAUCCCGUCGUAGCCACCA / CAATCTGAATTCCGGTCTCCC / TGGTGGCTACGACGGGATT | 0.0127
2 | GGGAGACCGGAAUUCAGAUUGUCCCUCCCUCUUAAAUCCCGUCGUAGCCACCA / CAATCTGAATTCCGGTCTCCC / TGGTGGCTACGACGGGATT | 0.000346
3 | GGGAGACCGGAAUUCAGAUUGUCCCCACCCAUUAAAUCCCGUCGUAGCCACCA / CAATCTGAATTCCGGTCTCCC / TGGTGGCTACGACGGGATT | 0.00425
4 | GGGAGACCGGAAUUCAGAUUGUCCUCCCAUAUUAAAUCCCGUCGUAGCCACCA / CAATCTGAATTCCGGTCTCCC / TGGTGGCTACGACGGGATT | 0.00271
5 | GGGAGACCGGAAUUCAGAUUGUCCGGUCUGCUUAAAUCCCGUCGUAGCCACCA / CAATCTGAATTCCGGTCTCCC / TGGTGGCTACGACGGGATT | 0.0698
6 | GGGAGACCGGAAUUCAGAUUGUCCAUUCCGGUUAAAUCCCGUCGUAGCCACCA / CAATCTGAATTCCGGTCTCCC / TGGTGGCTACGACGGGATT | 0.0034
7 | GGGAGACCGGAAUUCAGAUUGUCCGACCUCCUUAAAUCCCGUCGUAGCCACCA / CAATCTGAATTCCGGTCTCCC / TGGTGGCTACGACGGGATT | 0.0129
8 | GGGAGACCGGAAUUCAGAUUGUCCUCCCCUCUUAAAUCCCGUCGUAGCCACCA / CAATCTGAATTCCGGTCTCCC / TGGTGGCTACGACGGGATT | 0.0188
9 | GGGAGACCGGAAUUCAGAUUGUCCCCCAACUUUAAAUCCCGUCGUAGCCACCA / CAATCTGAATTCCGGTCTCCC / TGGTGGCTACGACGGGATT | 0.0195
10 | GGGAGACCGGAAUUCAGAUUGUCCCCCACUCUUAAAUCCCGUCGUAGCCACCA / CAATCTGAATTCCGGTCTCCC / TGGTGGCTACGACGGGATT | 0.00531
11 | GGGAGACCGGAAUUCAGAUUGUCCCCCGCCCUUAAAUCCCGUCGUAGCCACCA / CAATCTGAATTCCGGTCTCCC / TGGTGGCTACGACGGGATT | 0.00976
12 | GGGAGACCGGAAUUCAGAUUGUCCCUCUCCCUUAAAUCCCGUCGUAGCCACCA / CAATCTGAATTCCGGTCTCCC / TGGTGGCTACGACGGGATT | 0.0066
13 | GGGAGACCGGAAUUCAGAUUGUCCGCUCCCAUUAAAUCCCGUCGUAGCCACCA / CAATCTGAATTCCGGTCTCCC / TGGTGGCTACGACGGGATT | 0.00622
14 | GGGAGACCGGAAUUCAGAUUGUCCUCCCACGUUAAAUCCCGUCGUAGCCACCA / CAATCTGAATTCCGGTCTCCC / TGGTGGCTACGACGGGATT | 0.00822
15 | GGGAGACCGGAAUUCAGAUUGUCCGGUCCCUUUAAAUCCCGUCGUAGCCACCA / CAATCTGAATTCCGGTCTCCC / TGGTGGCTACGACGGGATT | 0.00558
16 | GGGAGACCGGAAUUCAGAUUGUCCGGAACCCUUAAAUCCCGUCGUAGCCACCA / CAATCTGAATTCCGGTCTCCC / TGGTGGCTACGACGGGATT | 0.00605
17 | GGGAGACCGGAAUUCAGAUUGUCCCCCACCUUUAAAUCCCGUCGUAGCCACCA / CAATCTGAATTCCGGTCTCCC / TGGTGGCTACGACGGGATT | 0.00332
18 | GGGAGACCGGAAUUCAGAUUGUCCCCCGACCUUAAAUCCCGUCGUAGCCACCA / CAATCTGAATTCCGGTCTCCC / TGGTGGCTACGACGGGATT | 0.00671
19 | GGGAGACCGGAAUUCAGAUUGUCCCCCACUAUUAAAUCCCGUCGUAGCCACCA / CAATCTGAATTCCGGTCTCCC / TGGTGGCTACGACGGGATT | 0.00309
20 | GGGAGACCGGAAUUCAGAUUGUCCGGUAUCCUUAAAUCCCGUCGUAGCCACCA / CAATCTGAATTCCGGTCTCCC / TGGTGGCTACGACGGGATT | 0.0127
21 | GGGAGACCGGAAUUCAGAUUGUCCGCUCUCCUUAAAUCCCGUCGUAGCCACCA / CAATCTGAATTCCGGTCTCCC / TGGTGGCTACGACGGGATT | 0.00438
22 | GGGAGACCGGAAUUCAGAUUGUCCCCAACCCUUAAAUCCCGUCGUAGCCACCA / CAATCTGAATTCCGGTCTCCC / TGGTGGCTACGACGGGATT | 0.00259
23 | GGGAGACCGGAAUUCAGAUUGUCCCUCCCAAUUAAAUCCCGUCGUAGCCACCA / CAATCTGAATTCCGGTCTCCC / TGGTGGCTACGACGGGATT | 0.00361
24 | GGGAGACCGGAAUUCAGAUUGUCCUCCCACCUUAAAUCCCGUCGUAGCCACCA / CAATCTGAATTCCGGTCTCCC / TGGTGGCTACGACGGGATT | 0.00425
25 | GGGAGACCGGAAUUCAGAUUGUCCUCCCACAUUAAAUCCCGUCGUAGCCACCA / CAATCTGAATTCCGGTCTCCC / TGGTGGCTACGACGGGATT | 0.0187
26 | GGGAGACCGGAAUUCAGAUUGUCCGGGACCCUUAAAUCCCGUCGUAGCCACCA / CAATCTGAATTCCGGTCTCCC / TGGTGGCTACGACGGGATT | 0.0206
27 | GGGAGACCGGAAUUCAGAUUGUCCUCUCCCAUUAAAUCCCGUCGUAGCCACCA / CAATCTGAATTCCGGTCTCCC / TGGTGGCTACGACGGGATT | 0.00556
28 | GGGAGACCGGAAUUCAGAUUGUCCACUCCCCUUAAAUCCCGUCGUAGCCACCA / CAATCTGAATTCCGGTCTCCC / TGGTGGCTACGACGGGATT | 0.00134
29 | GGGAGACCGGAAUUCAGAUUGUCCGGUCACCUUAAAUCCCGUCGUAGCCACCA / CAATCTGAATTCCGGTCTCCC / TGGTGGCTACGACGGGATT | 0.0121
30 | GGGAGACCGGAAUUCAGAUUGUCCUCCCCAAUUAAAUCCCGUCGUAGCCACCA / CAATCTGAATTCCGGTCTCCC / TGGTGGCTACGACGGGATT | 0.00319
